Experimental findings from the supplement of paper PMC11417369 are described below.

The other results are listed elsewhere or left out.

The assay relates to PfSIP2 AP2 domain 1 (GST-tagged). The experiment in a line: gcPBM binding intensity (ln(normalized median fluorescence intensity)); higher = stronger DNA binding. The procedure, abridged:
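An Agilent 4 × 180k array carrying primer-extended double-stranded 36-bp intergenic genomic probes and negative controls received GST-tagged P. falciparum DNA-binding domains expressed in E. coli, about 25 μg on average, for 1 h. The binding buffer contained 1× PBS, 1% milk, 0.2 mg/ml BSA, 0.5% salmon testes DNA and 0.03% Triton X-100. Binding intensity is the top Masliner-normalised natural-log median intensity across replicate spots of either probe orientation, read after Alexa488 anti-GST antibody staining and a 488 nm scan.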
As to “AAATTTCCATTTGGGTGTACATGTGAAACTACAAAG [XGTACX_site208]”, the “gcPBM binding intensity (ln)” value is 7.15.

With “AAACAATTGAATAAATGTACAGATACATTTTTTTAA [XGTACX_site5386]”, the “gcPBM binding intensity (ln)” value amounted to 6.76.

On to “TATTTATCTATTTTGTTATATAATAAAATAAAATAA [CACACA_negctrl_site281]”, for which the “gcPBM binding intensity (ln)” value amounted to 6.86.

In the case of “AAAAATAAACAAAATTGTACACATTACATACATATA [XGTACX_site966]”, the “gcPBM binding intensity (ln)” value stood at 7.01.

With “AAGAAAAGAACAAGAGCATGCACTTAATAAGAATAA [TGCATGCA_site818]”, the “gcPBM binding intensity (ln)” value stood at 7.51.

In the case of “TTAATATATTTTAAAAGTACATAATATTATTTTTTA [XGTACX_site3642]”, the “gcPBM binding intensity (ln)” value turned out to be 6.9.

As to “AAAAAAAACAGACACACACACATACAAAATATATAT [CACACA_site1449]”, the “gcPBM binding intensity (ln)” value came to 7.13.

As to “TTTAAATACAGACATACACACATACACAGACATATA [CACACA_site4460]”, the “gcPBM binding intensity (ln)” value is 6.97.

Take “CTCTATTGTTAAAAGGTGCTTTTATGATTTTATATA [GTGCAC_site9409]”: the “gcPBM binding intensity (ln)” value amounted to 8.67.

As for “ATATTTTTATGTACTTCAAAAAAAAAGAAAAACAAA [CACACA_negctrl_site970]”, the “gcPBM binding intensity (ln)” value came to 7.21.

With “AAGAGGTTAATGAAATGTACACATATATATATATAT [XGTACX_site1861]”, the “gcPBM binding intensity (ln)” value came to 9.61.

Regarding “TATAGTTTTGAAAACAAACACACAAAAAAAAAAAAA [CACACA_site1691]”, the “gcPBM binding intensity (ln)” value turned out to be 6.97.

For the sequence “ATAATTTCACAAATAGTGCAAAAATTAGTAAGAATA [GTGCAC_site9648]”, the “gcPBM binding intensity (ln)” value amounted to 8.51.

As for “TTTTATAAATATTATACATGCATAATGATAAAAAAA [TGCATGCA_site927]”, the “gcPBM binding intensity (ln)” value was determined as 6.88.

As to “TATGTAACCTGTTTTACACACCCCCACCCCCCTCTT [CACACA_site319]”, the “gcPBM binding intensity (ln)” value came to 9.18.

In the case of “TATAAGTATTAATACACACACAAAATAATAAAAAAA [CACACA_site3481]”, the “gcPBM binding intensity (ln)” value is 6.95.

For “AAAAATAAAGGATATACACACTAATTCTATAAATAT [CACACA_site7344]”, the “gcPBM binding intensity (ln)” value came out at 6.66.

“GTCTCGATAATGAAAAGTACAAAATAAAAATAATAA [XGTACX_site6471]”: the “gcPBM binding intensity (ln)” value was 7.52.

Regarding “TAAAGAATAATACATTCACACAATATTATAAAAATA [CACACA_site5986]”, the “gcPBM binding intensity (ln)” value is 6.82.

Take “TTGTATGAATTTATTTTTATTGATAATTAATATGTA [TGCATGCA_negctrl_site143]”: the “gcPBM binding intensity (ln)” value is 6.88.

On to “TATGATTAATTACCACAATTGACAAAAAAAAAAAAA [CACACA_negctrl_site336]”, for which the “gcPBM binding intensity (ln)” value turned out to be 6.83.

For the sequence “GAAATGTCATATAATAGTACACACATGAAAATATAA [XGTACX_site6838]”, the “gcPBM binding intensity (ln)” value was determined as 7.

As for “ATACAAAAGGGGAATACACACACATATATATATATA [CACACA_site8694]”, the “gcPBM binding intensity (ln)” value came out at 9.56.

As to “AATAAACATAGATGTACACACATATACAGATATATA [CACACA_site5570]”, the “gcPBM binding intensity (ln)” value is 7.18.
